In all, about 33,000 sequences were measured (“E-score (-0.5 to 0.5)”: median about -0.054, highest 2% from about 0.35 on). This is one part of the list.
molecular target: T1, Stb5 (UniProt P38699); assay: PBM E-score (8-mer binding enrichment) (E-score (-0.5 to 0.5)); higher = stronger / more preferred TF binding; most listed sequences are background and not binding sites; conditions: protein concentration: 200 nM; construct: GST-full length
T1 sequence: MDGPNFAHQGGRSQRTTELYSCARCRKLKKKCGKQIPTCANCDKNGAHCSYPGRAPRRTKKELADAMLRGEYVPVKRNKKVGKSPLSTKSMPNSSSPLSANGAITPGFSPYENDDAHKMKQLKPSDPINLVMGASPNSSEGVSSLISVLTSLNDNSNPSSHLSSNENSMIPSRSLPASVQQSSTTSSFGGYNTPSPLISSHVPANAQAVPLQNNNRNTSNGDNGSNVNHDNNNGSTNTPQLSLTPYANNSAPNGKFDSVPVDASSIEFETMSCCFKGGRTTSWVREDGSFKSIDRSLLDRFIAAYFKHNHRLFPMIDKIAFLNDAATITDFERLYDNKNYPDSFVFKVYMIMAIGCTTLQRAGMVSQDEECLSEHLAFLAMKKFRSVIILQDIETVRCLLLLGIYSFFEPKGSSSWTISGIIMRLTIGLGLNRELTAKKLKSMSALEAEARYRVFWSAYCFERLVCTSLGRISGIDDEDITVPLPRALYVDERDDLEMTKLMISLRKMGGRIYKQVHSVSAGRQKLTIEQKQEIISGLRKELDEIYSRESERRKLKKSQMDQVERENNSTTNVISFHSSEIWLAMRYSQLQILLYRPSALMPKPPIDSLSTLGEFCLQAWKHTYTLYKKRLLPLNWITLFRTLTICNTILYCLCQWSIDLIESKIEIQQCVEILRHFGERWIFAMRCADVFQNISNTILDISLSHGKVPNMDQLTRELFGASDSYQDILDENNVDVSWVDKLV
Method in brief: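 GST-tagged yeast TFs (full-length or DNA-binding domain) were made by PURExpress in vitro transcription/translation and applied at about 100-200 nM to universal all-10-mer Agilent arrays. The arrays were made double-stranded by primer extension, on fresh or once-stripped slides. Bound protein was detected with fluorescent anti-GST, and scans were normalised with masliner. Each ungapped eight-base word, pooled with its reverse complement, received an E-score (modified Wilcoxon-Mann-Whitney statistic) from the Universal PBM Analysis Suite.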

Sequence | PBM E-score
GACAGCAA | -0.194
CGGTAAAG | 0.162
ACTCAAGC | -0.128
GATCGCAC | 0.105
CTGGACCC | -0.128
ACGATCTA | -0.27
ATCAGACC | 0.132
GATGTAGC | -0.187
GGAAGTCC | 0.112
ATCGCAAC | -0.0557
AATGAGCT | -0.155
AATATGCA | 0.0295
ACCTCTTA | 0.0228
AAAGGCTC | -0.133
TCTCACAA | -0.173
CTGATTCA | -0.14
ATCAAAAC | -0.0789
CGTCGATA | 0.107
GACTATCA | -0.0319
CAGTTGGA | -0.0561
TCATAACA | 0.05
ATCTCTAA | -0.0122
CCTTACGA | -0.168
TAAAATTA | 0.109
AGAACCCG | 0.165

Sequence | PBM E-score
ATTTATCC | 0.28
CACATAGA | -0.0437
GAAATTAA | 0.0176
CACTCTCA | -0.237
ACAGATCA | -0.209
GGCGTGGA | -0.0499
CTCCGTTC | 0.333
AATCTAGC | -0.224
TCCCAAAA | -0.149
TAGCATCA | -0.204
GCATCAGC | -0.107
CACAGACC | 0.0406
CAAGCAGG | -0.117
AATCTGAA | -0.188
CGTCTCGC | -0.06
AGCAACTC | -0.139
ACGGCCAA | 0.068
AATTGAAT | -0.173
CCACCACC | -0.0853
ATCCGCGG | 0.284
GTGACCCA | -0.184
CTACCACC | 0.208
CGTGCACG | 0.146
GATGTTTA | 0.0404
ATAATAGA | -0.0563

Sequence | PBM E-score
CGACCACC | 0.134
ATACACGA | 0.00363
AGACAGGC | -0.231
AAGGTCCT | -0.0429
CATACATA | -0.0429
AATCGAGT | -0.186
CGATACCC | 0.0462
AATAACGA | -0.0399
AGTGTTCG | -0.0968
CTGATCCC | -0.109
CTACATAG | -0.163
AGATGGCT | -0.12
AAGCTCAC | -0.283
CCCCTCGG | 0.111
ATTCATTG | -0.111
GCTTGCGA | -0.171
ACCACGAC | -0.144
GCCAATAC | 0.105
ATAAGTGA | -0.163
AATCAGGA | -0.268
AGCGTAGA | -0.0503
AGCTGCCC | -0.191
ACAACGGA | 0.277
ATCACATG | -0.196
GACCCGCC | 0.251

Sequence | PBM E-score
AAATGTTC | -0.138
ATTCCGCA | 0.0974
CTTTGAGA | -0.0922
AACCCATG | -0.249
TGCCACAA | -0.202
CAACATTC | -0.229
CGTTACGC | 0.129
CCCCCTTC | -0.0804
CTAAAAGC | 0.0851
AGCGCTTC | -0.0248
CCCGAACG | 0.168
CAAAATGG | -0.00142
TAACGGAA | 0.19
ACCCGGGT | 0.267
CACTTGGG | -0.0813
CTCGAGGA | -0.238
ACGGGACC | 0.168
ACATGGTG | -0.042
AAGAGCAT | -0.197
AGTATCAG | -0.154
ATGGCAAG | -0.0117
CCTAACAG | -0.0238
TCGCCTAA | -0.0792
CATGGCTA | -0.257
GCTTATTA | 0.0873

Sequence | PBM E-score
ACGTTATG | 0.0611
AGCTCATC | -0.255
AACTCGAA | 0.0782
GACGGGCA | 0.216
CGCAGTAC | -0.0628
CTTGCTGC | -0.215
CGTTCAAC | 0.0199
GATGCAAC | -0.0959
TTAAGGAA | -0.136
ACCGTGAG | 0.219
CTAGATCA | -0.276
AGGAAAGG | 0.148
ACACGAAG | -0.0188
ACTCGCCG | 0.0413
CATCCCGC | 0.155
GTACACCA | -0.182
CAGACTCA | -0.255
AGCCGCGA | 0.208
ATACGAGG | -0.136
CGTCGCGC | 0.0574
GGACGATA | 0.0104
AAACTAGT | -0.164
GATTCCGA | 0.238
ATGAGCGC | 0.0769
CGCTCTTC | 0.0619

Sequence | PBM E-score
AAAGATTA | 0.161
GGACAGAA | 0.12
AAGCCCTG | -0.101
AATTTTGC | 0.00812
AATATGCG | -0.0125
GAAATGAC | -0.0378
GCAGGACC | -0.0116
GTTTCCGA | 0.0726
CCACTATA | -0.0706
GCCGGAGC | 0.286
CCCATTCG | -0.0634
AGGGATTC | -0.307
CAGCATCG | -0.122
CGCTGGCA | 0.0768
CCATATGC | 0.0284
CCCCATAA | -0.0966
CCTATTAG | -0.137
GGAACTGA | -0.0768
ACGGATAG | -0.0573
ATGTAAGG | -0.0435
GACTAATA | 0.0517
CGCTTCTC | 0.0972
CCAGAGCC | -0.241
CAGCGTCG | 0.0511
ACGGCCGA | 0.2

Sequence | PBM E-score
GATCTATA | 0.103
ACCTGTCC | -0.065
CTGGCCAC | -0.199
AGTTAGCC | -0.101
CAAACCCG | 0.216
AGTGAACA | -0.0848
TGGTCGAA | -0.359
TAGAAATA | -0.103
GATTTGTA | -0.177
CGCTTTAG | 0.0767
GTTGTTGA | -0.134
AGAATGCC | 0.0721
AAAGACAA | -0.0566
ACCTGTTC | -0.2
CACAGTGA | -0.288
AACGGTTC | 0.0106
CATGTGGG | -0.114
GTCAGTTA | -0.113
GTAATAAA | 0.22
AGCACAAT | -0.248
ACACCATC | -0.0629
CCGGCAAA | 0.237

— the supplement of paper PMC3334620
